Measured values reported in the supplement of paper PMC11417369.
± gives the standard deviation of the averaged measurements. Some of the results follow.

Each sequence was assayed on PfAP2-EXP AP2 domain (GST-tagged) (assay: gcPBM binding intensity (ln(normalized median fluorescence intensity)); higher = stronger DNA binding).
Method in brief: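 GST-tagged P. falciparum DNA-binding domains produced in E. coli were incubated for 1 h on an Agilent 4 × 180k array of primer-extended double-stranded 36-bp intergenic genomic probes with negative controls. Binding intensity is the highest Masliner-normalised natural-log median intensity across replicate spots of either probe orientation, with bound protein detected by Alexa488 anti-GST antibody at 488 nm.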

Row | Sequence | gcPBM binding intensity (ln)
1 | TAAACAGTATGCAACGCATGCGTTGTTATATATAAA [TGCATGCA_site232] | 9.2 ± 0.34
2 | AAATTTTCTTTTAAGTGTACGAAATTTAGTATTTCA [XGTACX_site7819] | 8.38 ± 0.44
3 | ATGTATTTATTATTTAGTACACATTATTTTCTTATA [XGTACX_site6365] | 8.68 ± 0.2
4 | TATATATAAATATATACACACATGAAAATAAATAAA [CACACA_site2514] | 8.51 ± 0.4
5 | TTTTTGTTTGTTCACGACTACATTATGTCATAAATG [CACACA_negctrl_site597] | 8.64 ± 0.4
6 | ATTTTTTTTTTTTTTTTTTTATTCTTAATTCATATA [CACACA_negctrl_site342] | 8.24 ± 0.5
7 | AGCATTTTAAAAGAAAAAAAAAAAAAAAAAAAAATA [GTGCAC_negctrl_site723] | 7.97 ± 0.51
8 | ATATATATATATTATACACACAAAAATATTTTGTAT [CACACA_site266] | 9.65 ± 0.26
9 | ATCTATGTTCCTTTTACACACATAATCTTTTTTTTA [CACACA_site5468] | 9.02 ± 0.45
10 | CGTGGGAGCAGACACACACACACACGCATATTTATA [CACACA_site6290] | 8.42 ± 0.51
11 | ATGGACAAAAAATATATACACACGAGGAAACCAACA [CACACA_site3726] | 9.05 ± 0.53
12 | CATGCATACTACATCTGTACACATACATTATATTTA [XGTACX_site2495] | 8.9 ± 0.37
13 | TTTTGTTTTTACGAATACTTTTTTAATTTTATTTAT [TGCATGCA_negctrl_site395] | 8.41 ± 0.34
14 | TCTTGTTATTTAAATGCATGTTGATTTTAAAAAATT [TGCATGCA_site840] | 8.81 ± 0.4
15 | AATAAAAAGTAATAATAACGTATAATTTATTATACT [TGCATGCA_negctrl_site414] | 8.29 ± 0.4
16 | TATACTTTATATATTTTGTATATATATTTTTTTTAT [TGCATGCA_negctrl_site530] | 8.43 ± 0.31
17 | GTAAATTATATAACAAATAAAAATGTACATATATAT [CACACA_negctrl_site408] | 8.77 ± 0.35
18 | ATATATATAGATTGTACACACATTTATGCATATATA [CACACA_site3222] | 8.98 ± 0.23
19 | ATAACATTCTATGTTGCACACAAAGAGAAAAATTTA [CACACA_site9322] | 8.37 ± 0.43
20 | ACGCAATATTAACAAGTGCATTATAACACATAACAT | 8.74 ± 0.3
21 | TTATATATTAATAGTAGTACTATATTGAATCACCCC [XGTACX_site2868] | 9.4 ± 0.59
22 | TTATTTTTGTTTTGAAGTACAAAAAAATATATTCTT [XGTACX_site6416] | 8.23 ± 0.23

Row | Sequence | gcPBM binding intensity (ln)
23 | AAAATTTATATAAGCACACAAATATATATTTATATC [CACACA_site3291] | 8.55 ± 0.47
24 | AGTTTATAGTGATATTGTACATATATATATATATAT [XGTACX_site572] | 10.2 ± 0.66
25 | TATTTATACTCAACTTTCTGTTATTCCAACTTTTTT [XGTACX_negctrl_site410] | 8.77 ± 0.39
26 | ACATAAGAACATATTTGTACGTATATAAATTAAATA [XGTACX_site6127] | 8.54 ± 0.42
27 | ACAACAAAAATAAGCACACACAAATATACATACATA [CACACA_site7664] | 8.79 ± 0.26
28 | TTTTAAATCTTATATTCCCCACATAAATAGCTCTCT [GTGCAC_negctrl_site665] | 8.43 ± 0.35
29 | ATATATATATATGTGTGTACATATATGTGGATGGAT [XGTACX_site6240] | 10 ± 0.43
30 | AGGTAGAAAAAAGACACACACATTATGTATATATAT [CACACA_site377] | 8.88 ± 0.22
31 | TTATAGGATCAAGCGCGTACATATCTTTATAAAAGA [XGTACX_site5775] | 8.72 ± 0.53
32 | GCAAATATGTTGATATGTACATATATATATATATAT [XGTACX_site445] | 10.2 ± 0.45
33 | TATTTCTTTATTGGCACACATTTTTTCAATTATATA [CACACA_site4975] | 8.84 ± 0.32
34 | ATATACAAATATATATATATATATATATATATATAT [CACACA_negctrl_site886] | 10.1 ± 0.58
35 | AAAAAATATACATATACACACATATGTATATATAAT [CACACA_site8676] | 8.16 ± 0.3
36 | ATTATTTTAATAAAACGTACAAAATATAAATCAAAA [XGTACX_site3770] | 8.73 ± 0.45
37 | TTTTTTCATATAAATACATGCACACAAAAATATCAA [TGCATGCA_site602] | 9.08 ± 0.26
38 | AATAACAAAATATTAACACACATAACATATTATAAA [CACACA_site2803] | 8.48 ± 0.34
39 | TAATGTTTTTTTTGTTTACCAAAAATAATACATTAT [CACACA_negctrl_site203] | 8.09 ± 0.47
40 | AATATAAAAATATAAAAACACACGTAAAAAAATTTA [CACACA_site3399] | 8.77 ± 0.65
41 | TATATTCTTTTAAACAGTACACACACACATATATAT [XGTACX_site1701] | 8.96 ± 0.44
42 | AAAAAAATTAAAAATAAAGAAAAAAAAAAAAAAAAA [GTGCAC_negctrl_site401] | 8.04 ± 0.66
43 | GAATATTTATCATGGGGTACCTTAAAAAAGGGAAAA [XGTACX_site298] | 8.55 ± 0.49
44 | TTTTATTTATAATATATACACACTAACATTATTTAT [CACACA_site1284] | 8.27 ± 0.34

Row | Sequence | gcPBM binding intensity (ln)
45 | ATATCTTAAATTATTTGTACATATATATATATATAT [XGTACX_site8034] | 10.3 ± 0.27
46 | AATATAAACCCAAACACACACATATATATATATATA [CACACA_site268] | 9.98 ± 0.41
47 | TTTTTTTTTTTGAGGAGGACACAAAAATATGCTACC [XGTACX_site756] | 8.53 ± 0.26
48 | TTAACGCTTATTTTTTGTACTTATTTTATTTTAAAT [XGTACX_site3977] | 8.85 ± 0.37
49 | ACTCTATAATAAAATACACACAAGACTATCTAATAT [CACACA_site1796] | 8.51 ± 0.45
50 | CAACATTAATATAAAGCACACATATATATAATATAT [CACACA_site8064] | 8.51 ± 0.31
51 | ATATATACATATAATTGTACTTGTGTTGTTTTTCTT [XGTACX_site1870] | 8.78 ± 0.47
52 | TGTAGATATTATATATGTACGCATATGAAATATATA [XGTACX_site1586] | 8.47 ± 0.12
53 | GTAATATCAATATAAAGTACACACTATAGTATGTAT [XGTACX_site4714] | 8.4 ± 0.36
54 | TTCAAAATATATATTTGTACATATAGGATCTTTTTC [XGTACX_site4500] | 8.41 ± 0.45
55 | AAAATATATAATATAACACACATATATTCTATATGG [CACACA_site4044] | 8.14 ± 0.27
56 | TAATTATATAAATATTGTACAAAAAAAATATATATA [XGTACX_site3137] | 8.62 ± 0.42
57 | TCTTTTTTTTTTTTTTTTTTTTTTTTTTTTTTTTTT [GTGCAC_negctrl_site18] | 9.3 ± 0.18
58 | TTTTCTTTTTAAATTACACACACATATATATATGTA [CACACA_site9172] | 8.54 ± 0.4
59 | ATAAAACCAACATAGAGTACAGATCGACTATGTTTC [XGTACX_site4329] | 8.72 ± 0.46
60 | ATTTTAATGACATATACACACAAAGGTTCATAACAA [CACACA_site5664] | 8.53 ± 0.4
61 | ACTATTTAAAAATATGGTACACGAAATTCAAGAGAA [XGTACX_site5903] | 8.77 ± 0.42
62 | ATATATATATATGTATGTATATATATATGTTTGATT [XGTACX_negctrl_site62] | 10.16 ± 0.064
63 | ATGAATTAACCTAATCGTACAATAAATATTATTATA [XGTACX_site596] | 8.3 ± 0.4
64 | TTTTTTATTTTGTTGAAGCAATGAAAATGAATGAAA [TGCATGCA_negctrl_site495] | 8.52 ± 0.38
65 | ATATGTTTAAAAATATGTACGTATTATATATTCTAT [XGTACX_site1358] | 8.59 ± 0.29
66 | AAGTTTTATATTTATTAAATTTTTTTTTTTCCTTTT [XGTACX_negctrl_site184] | 8.1 ± 0.4

Row | Sequence | gcPBM binding intensity (ln)
67 | TTGTTTATGTGAGAAGTGCATTTTTTCGTTCATGTA | 8.61 ± 0.35
68 | ATGTAAGTATAAAATGTGCGCATTGGGAATGAGGAC | 9.46 ± 0.5
69 | TAATATATAAATATATGTACATAATAAATAGGATAT [XGTACX_site3661] | 8.89 ± 0.45
70 | TTTATATAAGGACATGCATGCTATTATTAAATATAT [TGCATGCA_site1011] | 9.82 ± 0.16
71 | ACTTCATAGGTTACCTGTACATATAAGGAGTTATCA [XGTACX_site4110] | 8.76 ± 0.51
72 | TACGCGAAATGAATATGTACATATATGAGGGCATAT [XGTACX_site4293] | 9.1 ± 0.45
73 | GGAAACCCTCCCAAATGTACTTTTATAAAAAAATAC [XGTACX_site5502] | 9.37 ± 0.63
74 | TTTGCCATAAAACACACACACATGTAAACCCCCTTT [CACACA_site1646] | 9.52 ± 0.61
75 | ATATAAGTACATATAACACACATATATTATAAGTAT [CACACA_site2647] | 8.44 ± 0.26
76 | TATACTCAGAAACACACACACACACCCAAAAAAAAA [CACACA_site4434] | 8.66 ± 0.38
77 | ATACATATATAAATATGTACACACATATGTATGATC [XGTACX_site8219] | 8.62 ± 0.23
78 | AAAAAAAAAAAAAAAACACACATACACCCAGACACA [CACACA_site5807] | 8.76 ± 0.41
79 | GATATAAGGGTATGAAGTACATAAATATTTTATGCT [XGTACX_site1886] | 8.54 ± 0.43
80 | TTTTTATTTTTTGTCTGTACATATATAAATTTATTA [XGTACX_site1525] | 8.77 ± 0.43
81 | TATGCACGCGAACACACACACACAACTAAAAAATAA [CACACA_site7251] | 8.63 ± 0.49
82 | AGAATAGTGGAAAACACACACGTTTGAGATATGGAC [CACACA_site4782] | 9.13 ± 0.45
83 | TTATAAAAAGAACAATTAAAAAAAAATAAAATAAAA [XGTACX_negctrl_site398] | 8.32 ± 0.57
84 | GCACGTGTGATTAGATGTACATAACATGTATATGTC [XGTACX_site4632] | 8.64 ± 0.39
85 | TTTTTATGTTCTATATATATATATATATATATATAT [GTGCAC_negctrl_site306] | 10.1 ± 0.44
86 | CACCCACCCACATACACACACATACACATATATATA [CACACA_site1722] | 9.3 ± 0.45
87 | ATACATACATATGTATGTACGTATGTATGTATGTAT [XGTACX_site3853] | 8.49 ± 0.16
88 | CAAATAAAAAAAGTAGCACACATGAATAAAATATAT [CACACA_site3130] | 8.96 ± 0.48
